Results: PubChem BioAssay AID463173 (ICCB-Longwood Screening Facility, Harvard Medical School, 2010)
In all, about 52,000 compounds went through this assay and about 1,700 (3.3%) were called active. Cut-off read from the data, not from the text of the source: active = survival mostly below about 52% (no sharp cut-off); inactive = mostly above about 56%. The list shows a part of the results.

Each compound was assayed on Wild type (assay: S. aureus survival, RN4220 and DeltatarO strains – OD600, teichoic acid synthesis inhibitors, primary screen (AID 463173)). Details: S. aureus RN4220 wild type/DeltatarO growth, OD600, 18 h, active compounds read low, screened at 18.75 µg/mL (by protocol).

Row | Structure (SMILES) | survival
1 | COc1ccc(CNC(=O)CC2Oc3ccc(C)cc3NC2=O)cc1 (centres undefined) | inactive: 78%
2 | COc1cccc(CC(=O)Nc2ccc3nc(Nc4cccc(C(F)(F)F)c4)cc(C)c3c2)c1 | inactive: 19%
3 | COC(=O)c1cc2oc3ccccc3c2n1CC(=O)Nc1ccc(F)c(Cl)c1 | inactive: 77%
4 | Cc1ccc(S(=O)(=O)N2CCc3cc(C(=O)Nc4c(C)cccc4C(C)C)ccc32)cc1 | inactive: 86%
5 | Cc1cccc(Cn2c(CN3CCCC(C)C3)nc3c2c(=O)n(C)c(=O)n3C)c1 (centres undefined) | inactive: 80%
6 | COc1ccc(CCNc2nc(SCc3cccc(Cl)c3)nc3ccccc23)cc1OC | inactive: 75%
7 | CCOc1ccc(CCNC(=O)c2nn(C)c3c2CSc2ccc(C)cc2-3)cc1OCC | inactive: 65%
8 | COCCCNC(=O)c1ccc(-n2c(-c3ccccc3)cc3c2CCCCC3)cc1 | inactive: 83%
9 | O=C(NCc1ccccc1)c1nc(-c2ccc(Cl)cc2)n2c1CCCCC2 | inactive: 125%
10 | CCc1nonc1NC(=O)c1oc2ccc(Cl)cc2c1C | inactive: 93%
11 | Cc1ccc(Cl)cc1NC(=O)Cn1c(SCC(=O)NCc2ccccc2)nc2ccccc21 | inactive: 80%
12 | CCOC(=O)c1c(NC(=O)CSc2cn(CCNC(=O)c3ccc(OCC)cc3)c3ccccc23)sc2c1CCC2 | inactive: 71%
13 | O=C(CSc1nc2ccccc2n1CC(=O)N1CCCC1)N1CCCCC1 | inactive: 104%
14 | Clc1ccc2nc(-c3cccs3)c(Nc3ccc4c(c3)OCCO4)n2c1 | inactive: 78%
15 | CCOC(=O)c1cc(OC(=O)c2cc(OC)cc(OC)c2)n(-c2ccccc2)n1 | inactive: 66%
16 | CC1=C(C(=O)OC2CCCCCC2)C(c2ccc(Cl)cc2Cl)CC(=O)N1 (centres undefined) | inactive: 82%
17 | CC1Cc2cc(S(=O)(=O)NCc3ccccc3)ccc2N1C(=O)C1CCC1 (centres undefined) | inactive: 73%
18 | C=CCSc1nc2ccccc2c(=O)n1CC1CCCO1 (centres undefined) | inactive: 108%
19 | CN(C)S(=O)(=O)c1ccc(S(=O)(=O)N(CC(=O)Nc2ccccc2)C2CC2)cc1 | inactive: 101%
20 | COc1ccccc1NC(=O)CSc1oc(-c2ccc(F)cc2)nc1S(=O)(=O)c1ccc(Br)cc1 | inactive: 64%
21 | CC(C)(C)c1ccccc1NC(=O)c1cnn2c(C(F)F)cc(-c3ccccc3)nc12 | inactive: 75%
22 | CCCCCOc1ccc(C(CC(N)=O)CC(=O)O)cc1 (centres undefined) | inactive: 117%
23 | Cn1c(=O)c2c(SCC(=O)Nc3ccc(F)cc3F)nc(C3CCCC3)nc2n(C)c1=O | inactive: 66%

Row | Structure (SMILES) | survival
24 | CCOC(=O)c1cnc(N2CCN(c3ccc(C)cc3C)CC2)c2ccccc12 | inactive: 112%
25 | Cc1ccc(C)c(NC(=O)Cn2ccn(-c3ccc(F)cc3)c(=O)c2=O)c1 | inactive: 112%
26 | CSc1cccc(NC(=O)CN2C(=O)COc3ccc(S(=O)(=O)N4CCC(C)CC4)cc32)c1 | inactive: 77%
27 | Cc1sc2nc(CN(C(=O)c3cccs3)C3CCCC3)[nH]c(=O)c2c1C | inactive: 114%
28 | COCCN(C(C)=O)c1nnc(-c2cccnc2)s1 | inactive: 94%
29 | Cc1ccccc1CNC(=O)c1ccc2[nH]c(C)c(C)c2c1 | inactive: 120%
30 | Cc1cc(Cl)nc(SCC(=O)c2ccccc2)n1 | inactive: 98%
31 | Cc1cc(C)cc(Nc2cc(C)nc3nc(-c4ccco4)nn23)c1 | inactive: 78%
32 | Cc1ccc(-c2nc3c4ccccc4n(CC(=O)N4CCN(c5ccc(F)cc5)CC4)c(=O)n3n2)cc1 | inactive: 83%
33 | COc1ccc(CCNC(=O)C2CCCN2C(=O)NC2CCCCC2)cc1OC (centres undefined) | inactive: 105%
34 | CCC(C)NC(=O)Cn1c(-c2cccs2)cc2cc(Cl)ccc21 (centres undefined) | inactive: 70%
35 | CCOC(=O)c1c(NC(=O)c2cc(-c3ccc(Cl)cc3)on2)sc(C)c1C | inactive: 81%
36 | Cc1ccc(CN(C(=O)c2ccccc2[N+](=O)[O-])c2ccccn2)cc1 | inactive: 81%
37 | Cc1cc(N2CCC(C(=O)NCCC(C)C)CC2)n2nc(C)c(-c3ccc(Cl)cc3)c2n1 | inactive: 85%
38 | COc1ccc(-c2nc(-c3ccccc3)c(-c3ccc(F)cc3)[nH]2)c(OC)c1C | active: 15%
39 | CC1CN(C(=O)CCC(=O)NCc2ccccc2)c2cc(Cl)ccc2O1 (centres undefined) | inactive: 92%
40 | Cc1ccc(Cl)cc1NC(=O)Cn1ncc2c(C)n(Cc3ccccc3F)c(C)c2c1=O | inactive: 80%
41 | CC(C)(C)NC(=O)c1ccc2nc(CCc3ccccc3)oc2c1 | inactive: 65%
42 | Cc1cc(C)cc(N2C(=O)CCSC23C(=O)N(Cc2ccccc2)c2ccccc23)c1 (centres undefined) | inactive: 73%
43 | CCOc1ccc(CCNC(=O)c2ccc3c(c2)sc2nc(-c4ccc(F)cc4)cn23)cc1OCC | inactive: 76%
44 | O=S(=O)(NCCc1csc2nc(-c3ccc(F)cc3)nn12)c1ccc(Oc2ccccc2)cc1 | inactive: 92%
45 | COc1cccc(CNCCSc2nnnn2C)c1OCc1ccc(F)cc1 | inactive: 69%
46 | CC(C)c1ccc(NC(=O)CCn2c(=O)c3cccn3c3ccccc32)cc1 | inactive: 73%

Row | Structure (SMILES) | survival
47 | Cc1ccc(C(CC(=O)Nc2ccc(F)c(Cl)c2)N2Cc3ccccc3C2=O)cc1 (centres undefined) | inactive: 78%
48 | COc1cccc(NC(=O)N(Cc2c[nH]c3ccccc23)C2CCCCC2)c1 | inactive: 71%
49 | CCOC(=O)c1[nH]c(C)c(CCC(=O)Nc2ccc(Br)c(C)c2)c1C | inactive: 81%
50 | Cc1ccc(N2CC(NC(=O)C3CC3)CC2=O)cc1C (centres undefined) | inactive: 75%
51 | CCOC(=O)c1ccn(-c2nc(-c3cccc(OC)c3)cc(C(F)(F)F)n2)n1 | inactive: 48%
52 | Cc1nc2sccn2c(=O)c1S(=O)(=O)Nc1ccc(N2CCN(C(=O)C(C)C)CC2)cc1 | inactive: 87%
53 | COc1cc(C(=O)Nc2nonc2-c2ccc(Cl)cc2)cc(OC)c1OC | inactive: 94%
54 | Cc1cccc(N2CCN(S(=O)(=O)c3c(C(=O)N4CCC(C)CC4)c(C)n(C)c3C)CC2)c1C | inactive: 72%
55 | Cc1ccc(NC(=O)Cn2cnc3sc(C)c(S(=O)(=O)N4CCN(c5ncccn5)CC4)c3c2=O)cc1F | inactive: 73%
56 | CCCCCc1nn2cc(-c3ccccc3)nc2s1 | inactive: 107%
57 | Cn1nnnc1SCCCNCc1cc(Cl)ccc1OCc1ccccc1F | inactive: 85%
58 | Cc1sc2ncnc(SCC(N)=O)c2c1C | inactive: 101%
59 | Cc1cccc(CNC(=O)C2CCN(S(=O)(=O)c3ccc4c(c3)CCCN4C(=O)C3CCC3)CC2)c1 | inactive: 84%
60 | CCCc1cnc2c(c1SCC(=O)Nc1ccccc1F)c(=O)n(C)c(=O)n2C | inactive: 123%
61 | CCOC(=O)c1cnc(SC)nc1Nc1ccccc1 | inactive: 114%
62 | CC1CCN(C(=O)c2cc3n(n2)C(C(F)(F)F)CC(c2ccco2)N3)CC1 (centres undefined) | inactive: 115%
63 | COc1ccc(NC(=O)CSC2=Nc3ccccc3C3=NC(CC(=O)NCc4ccc5c(c4)OCO5)C(=O)N23)cc1 (centres undefined) | inactive: 71%
64 | CCOc1ccc(C(c2c(O)cc(C)n(Cc3ccco3)c2=O)N2CCN(c3ccccc3)CC2)cc1 (centres undefined) | inactive: 83%
65 | Cc1ccc(C2C=C(c3ccc(Cl)cc3)Nc3nc(NC(=O)c4ccco4)nn32)cc1 (centres undefined) | inactive: 103%
66 | CCc1nn(Cc2c(C)cc(C)cc2C)c(=O)c2cc3cc(C)ccc3n12 | inactive: 96%
67 | CCCC12CN3CC(CCC)(CN(C1)C3c1c(C)[nH]c(=O)[nH]c1=O)C2=O (centres undefined) | inactive: 111%
68 | O=C(Nc1ccc(F)cc1F)N1CCN(c2ccc(Cl)c(Cl)c2)CC1 | inactive: 52%
69 | COc1cc(Nc2ncc3c(n2)CCN(Cc2cc(F)cc(F)c2)C3)cc(OC)c1 | inactive: 76%

Row | Structure (SMILES) | survival
70 | Cc1ccc(C)c(N2CCN(S(=O)(=O)c3ccc4c(c3)OCCO4)CC2)c1 | inactive: 102%
71 | CCOc1ccc(-c2csc(-c3c(N)c(C(=O)c4ccc5c(c4)OCO5)n4ccccc34)n2)cc1 | inactive: 128%
72 | COc1ccc(C)cc1NC(=O)CN1C(=O)COc2ccc(S(=O)(=O)NC3CCCC3)cc21 | inactive: 85%
73 | CCOc1ccccc1NC(=O)c1nn(C)c2c1CSc1ccccc1-2 | inactive: 88%
74 | O=C(CSC1=NCCN1)C1COc2ccccc2O1 (centres undefined) | inactive: 76%
75 | CN(C)CCNC(=O)c1ccc(Cn2c(=O)c3cccn3c3cccnc32)cc1 | inactive: 89%
76 | Cn1nc(-c2ccc(N3CCCCC3)c(NC(=O)c3ccc(Cl)cc3)c2)c2ccccc2c1=O | inactive: 80%
77 | COc1ccc(-n2c(=O)c3c4c(sc3n3c(SC(C)C)nnc23)COC(C(C)C)C4)cc1 (centres undefined) | inactive: 88%
78 | CCCc1cc(=O)[nH]c(SCc2nc(-c3ccccc3F)no2)n1 | inactive: 129%
79 | CCOC(=O)c1cc(S(=O)(=O)Nc2ccccc2OCC)[nH]n1 | inactive: 64%
80 | Cc1ccccc1CSc1nc2c([nH]c3ccccc32)c(=O)n1C | inactive: 71%
81 | Cc1ccc(-n2ncc(C(=O)NCCN3CCc4ccccc4C3)c2C2CCNCC2)cc1C | inactive: 87%
82 | COc1ccc(NC(=O)c2cc(=O)c3ccc(C)c(C)c3o2)cc1Cl | inactive: 91%
83 | CCCn1c(=NC(=O)c2c(-c3c(F)cccc3Cl)noc2C)c(C(=O)OCC)cc2c(=O)n3ccccc3nc21 | inactive: 138%
84 | C=CCn1c(N)c(C(N)=O)sc1=S | inactive: 99%
85 | CC(=O)c1cccc(Nc2ccc3cc(S(=O)(=O)N4CCCC4)ccc3n2)c1 | inactive: 73%
86 | CC1=[N+](CCC#N)CC(C)(C)C1 | inactive: 105%
87 | Cc1cccc(CNC(=O)c2ccc(NC(=O)N3CCSc4ncccc43)cc2)c1 | inactive: 71%
88 | CC1CCN(S(=O)(=O)c2ccc3c(c2)N(CC(=O)NCCCN2CCCC(C)C2)C(=O)CS3)CC1 (centres undefined) | inactive: 83%
89 | CCOc1ccc(NC(=O)C(C)Sc2nc3ncccc3o2)cc1 (centres undefined) | inactive: 57%
